The other results are listed elsewhere or left out.
Legend:
Test in all cases: glycan array binding signal (z-score within array); higher = stronger binding
Settings in all cases: glycan notation: IUPAC condensed, linker removed
[1] = molecular target: Gal(a1-3)Gal(b1-4)GlcNAc(b1-2)Man
Outline: (§1)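 Glycan array data came from 3228 arrays in the Consortium for Functional Glycomics database, and only arrays with an available protein sequence were kept. Glycan names were put into IUPAC-condensed notation, and columns mapping to the same glycan were averaged. The binding signal is a within-array Z-score, averaged across arrays of one protein sequence run at different concentrations or buffers and across linkers. A negative Z-score can be read as non-binding.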

[2] = molecular target: Gal(a1-3)Gal(b1-4)GlcNAc(b1-2)Man(a1-3)[Gal(a1-3)Gal(b1-4)GlcNAc(b1-2)Man(a1-6)]Man(b1-4)GlcNAc(b1-4)GlcNAc
Outline: as §1

[3] = molecular target: Gal(a1-3)Gal(b1-4)GlcNAc(b1-3)GalNAc
Outline: as §1

[4] = molecular target: Gal(a1-3)Gal(b1-4)GlcNAc(b1-6)GalNAc
Outline: as §1

[5] = molecular target: Gal(a1-3)Gal(b1-4)[Fuc(a1-3)]GlcNAc
Outline: as §1

[6] = molecular target: Gal(a1-3)Gal(b1-4)[Fuc(a1-3)]GlcNAc(b1-2)Man(a1-3)[Gal(a1-3)Gal(b1-4)[Fuc(a1-3)]GlcNAc(b1-2)Man(a1-6)]Man(b1-4)GlcNAc(b1-4)GlcNAc
Outline: as §1

Gal(a1-3)GalNAc = molecular target: Gal(a1-3)GalNAc
Outline: as §1

[7] = molecular target: Gal(a1-3)[Gal(a1-4)]Gal(b1-4)GlcNAc
Outline: as §1

[8] = molecular target: Gal(a1-4)Gal(b1-3)GlcNAc(b1-2)Man(a1-3)[Gal(a1-4)Gal(b1-3)GlcNAc(b1-2)Man(a1-6)]Man(b1-4)GlcNAc(b1-4)GlcNAc
Outline: as §1

Gal(a1-4)Gal(b1-4)Glc = molecular target: Gal(a1-4)Gal(b1-4)Glc
Outline: as §1

Gal(a1-4)Gal(b1-4)GlcNAc = molecular target: Gal(a1-4)Gal(b1-4)GlcNAc
Outline: as §1

[9] = molecular target: Gal(a1-4)Gal(b1-4)GlcNAc(b1-2)Man(a1-3)[Gal(a1-4)Gal(b1-4)GlcNAc(b1-2)Man(a1-6)]Man(b1-4)GlcNAc(b1-4)GlcNAc
Outline: as §1

[10] = molecular target: Gal(a1-4)Gal(b1-4)GlcNAc(b1-3)Gal(b1-4)Glc
Outline: as §1

Gal(a1-4)GlcNAc = molecular target: Gal(a1-4)GlcNAc
Outline: as §1

Gal(a1-6)Glc = molecular target: Gal(a1-6)Glc
Outline: as §1

Gal(b1-2)Gal = molecular target: Gal(b1-2)Gal
Outline: as §1

Gal(b1-3)Gal = molecular target: Gal(b1-3)Gal
Outline: as §1

Gal(b1-3)Gal(b1-4)GlcNAc = molecular target: Gal(b1-3)Gal(b1-4)GlcNAc
Outline: as §1

Gal(b1-3)GalNAc = molecular target: Gal(b1-3)GalNAc
Outline: as §1

[11] = molecular target: Gal(b1-3)GalNAc(a1-3)[Fuc(a1-2)]Gal(b1-4)Glc
Outline: as §1

[12] = molecular target: Gal(b1-3)GalNAc(a1-3)[Fuc(a1-2)]Gal(b1-4)GlcNAc
Outline: as §1

Gal(b1-3)GalNAc(b1-3)Gal = molecular target: Gal(b1-3)GalNAc(b1-3)Gal
Outline: as §1

[13] = molecular target: Gal(b1-3)GalNAc(b1-3)Gal(a1-4)Gal(b1-4)Glc
Outline: as §1

[14] = molecular target: Gal(b1-3)GalNAc(b1-4)Gal(b1-4)Glc
Outline: as §1

[15] = molecular target: Gal(b1-3)GalNAc(b1-4)[Neu5Ac(a2-3)]Gal(b1-4)Glc
Outline: as §1

Gal(b1-3)GlcNAc = molecular target: Gal(b1-3)GlcNAc
Outline: as §1

[16] = molecular target: Gal(b1-3)GlcNAc(a1-3)Gal(b1-4)GlcNAc
Outline: as §1

[17] = molecular target: Gal(b1-3)GlcNAc(a1-6)Gal(b1-4)GlcNAc
Outline: as §1

Gal(b1-3)GlcNAc(b1-2)Man = molecular target: Gal(b1-3)GlcNAc(b1-2)Man
Outline: as §1

[18] = molecular target: Gal(b1-3)GlcNAc(b1-2)Man(a1-3)[Gal(b1-3)GlcNAc(b1-2)Man(a1-6)]Man(b1-4)GlcNAc(b1-4)GlcNAc
Outline: as §1

[19] = molecular target: Gal(b1-3)GlcNAc(b1-2)Man(a1-3)[Gal(b1-3)GlcNAc(b1-2)Man(a1-6)]Man(b1-4)GlcNAc(b1-4)[Fuc(a1-6)]GlcNAc
Outline: as §1

[20] = molecular target: Gal(b1-3)GlcNAc(b1-2)Man(a1-3)[GlcNAc(b1-4)][Gal(b1-3)GlcNAc(b1-2)Man(a1-6)]Man(b1-4)GlcNAc(b1-4)GlcNAc
Outline: as §1

[21] = molecular target: Gal(b1-3)GlcNAc(b1-2)[Gal(b1-3)GlcNAc(b1-6)]Man(a1-6)[Gal(b1-3)GlcNAc(b1-2)Man(a1-3)]Man(b1-4)GlcNAc(b1-4)GlcNAc
Outline: as §1

[22] = molecular target: Gal(b1-3)GlcNAc(b1-3)Gal(b1-3)GlcNAc
Outline: as §1

[23] = molecular target: Gal(b1-3)GlcNAc(b1-3)Gal(b1-4)Glc
Outline: as §1

[24] = molecular target: Gal(b1-3)GlcNAc(b1-3)Gal(b1-4)GlcNAc
Outline: as §1

[25] = molecular target: Gal(b1-3)GlcNAc(b1-3)Gal(b1-4)GlcNAc(b1-2)Man(a1-3)[Gal(b1-3)GlcNAc(b1-3)Gal(b1-4)GlcNAc(b1-2)Man(a1-6)]Man(b1-4)GlcNAc(b1-4)GlcNAc
Outline: as §1

[26] = molecular target: Gal(b1-3)GlcNAc(b1-3)Gal(b1-4)GlcNAc(b1-2)[Gal(b1-3)GlcNAc(b1-3)Gal(b1-4)GlcNAc(b1-6)]Man(a1-6)[Gal(b1-3)GlcNAc(b1-3)Gal(b1-4)GlcNAc(b1-2)Man(a1-3)]Man(b1-4)GlcNAc(b1-4)[Fuc(a1-6)]GlcNAc
Outline: as §1

[27] = molecular target: Gal(b1-3)GlcNAc(b1-3)Gal(b1-4)GlcNAc(b1-3)Gal(b1-4)GlcNAc(b1-2)[Gal(b1-3)GlcNAc(b1-3)Gal(b1-4)GlcNAc(b1-3)Gal(b1-4)GlcNAc(b1-6)]Man(a1-6)[Gal(b1-3)GlcNAc(b1-3)Gal(b1-4)GlcNAc(b1-3)Gal(b1-4)GlcNAc(b1-2)Man(a1-3)]Man(b1-4)GlcNAc(b1-4)[Fuc(a1-6)]GlcNAc
Outline: as §1

[28] = molecular target: Gal(b1-3)GlcNAc(b1-3)Gal(b1-4)GlcNAc(b1-6)[Gal(b1-3)GlcNAc(b1-3)]Gal(b1-4)Glc
Outline: as §1

[29] = molecular target: Gal(b1-3)GlcNAc(b1-3)Gal(b1-4)[Fuc(a1-3)]GlcNAc
Outline: as §1

[30] = molecular target: Gal(b1-3)GlcNAc(b1-3)Gal(b1-4)[Fuc(a1-3)]GlcNAc(b1-6)[Gal(b1-3)GlcNAc(b1-3)]Gal(b1-4)Glc
Outline: as §1

[31] = molecular target: Gal(b1-3)GlcNAc(b1-3)GalNAc
Outline: as §1

[32] = molecular target: Gal(b1-3)GlcNAc(b1-6)Gal(b1-4)GlcNAc
Outline: as §1

[33] = molecular target: Gal(b1-3)GlcNAc(b1-6)GalNAc
Outline: as §1

B1: FGFR2-Fc (protein)
chain: MVNVTDAISSGDDEDDTDGAEDFVSENSNNKRAPYWTNTEKMEKRLHAVPAANTVKFRCPAGGNPMPTMRWLKNGKEFKQEHRIGGYKVRNQHWSLIMESVVPSDKGNYTCVVENEYGSINHTYHLDVVERSPHRPILQAGLPANASTVVGGDVEFVCKVYSDAQPHIQWIKHVEKNGSKYGPDGLPYLKVLKHSGINSSNAEVLALFNVTEADAGEYICKVSNYIGQANQSAWLTVLPKQQAPGREKEITASPDYLETRPLEQKLISEEDLAANDILDYKDDDDKV
[1]
  glycan array binding signal (z-score): -0.781
[2]
  glycan array binding signal (z-score): 0.17
[3]
  glycan array binding signal (z-score): -0.299
[4]
  glycan array binding signal (z-score): -0.228
[5]
  glycan array binding signal (z-score): -1.08
[6]
  glycan array binding signal (z-score): -0.096
Gal(a1-3)GalNAc
  glycan array binding signal (z-score): -0.158
[7]
  glycan array binding signal (z-score): 0.989
[8]
  glycan array binding signal (z-score): 0.012
Gal(a1-4)Gal(b1-4)Glc
  glycan array binding signal (z-score): -0.145
Gal(a1-4)Gal(b1-4)GlcNAc
  glycan array binding signal (z-score): -0.307
[9]
  glycan array binding signal (z-score): 0.803
[10]
  glycan array binding signal (z-score): -0.278
Gal(a1-4)GlcNAc
  glycan array binding signal (z-score): -0.514
Gal(a1-6)Glc
  glycan array binding signal (z-score): -0.488
Gal(b1-2)Gal
  glycan array binding signal (z-score): -0.626
Gal(b1-3)Gal
  glycan array binding signal (z-score): -0.344
Gal(b1-3)Gal(b1-4)GlcNAc
  glycan array binding signal (z-score): -0.562
Gal(b1-3)GalNAc
  glycan array binding signal (z-score): 0.236
[11]
  glycan array binding signal (z-score): -0.334
[12]
  glycan array binding signal (z-score): -0.577
Gal(b1-3)GalNAc(b1-3)Gal
  glycan array binding signal (z-score): -0.011
[13]
  glycan array binding signal (z-score): 0.228
[14]
  glycan array binding signal (z-score): 0.217
[15]
  glycan array binding signal (z-score): 0.495
Gal(b1-3)GlcNAc
  glycan array binding signal (z-score): -0.386
[16]
  glycan array binding signal (z-score): 0.499
[17]
  glycan array binding signal (z-score): 0.105
Gal(b1-3)GlcNAc(b1-2)Man
  glycan array binding signal (z-score): 0.58
[18]
  glycan array binding signal (z-score): 0.547
[19]
  glycan array binding signal (z-score): 0.412
[20]
  glycan array binding signal (z-score): -0.217
[21]
  glycan array binding signal (z-score): 0.991
[22]
  glycan array binding signal (z-score): -0.42
[23]
  glycan array binding signal (z-score): -0.488
[24]
  glycan array binding signal (z-score): -0.553
[25]
  glycan array binding signal (z-score): 0.313
[26]
  glycan array binding signal (z-score): 0.368
[27]
  glycan array binding signal (z-score): 0.342
[28]
  glycan array binding signal (z-score): 0.637
[29]
  glycan array binding signal (z-score): -0.305
[30]
  glycan array binding signal (z-score): -0.475
[31]
  glycan array binding signal (z-score): -0.535
[32]
  glycan array binding signal (z-score): 0.196
[33]
  glycan array binding signal (z-score): -0.568
